# Measured values as given in the supplement of paper PMC9446081.
# In all, about 39,000 compounds went through this assay and about 220 (0.56%) showed activity. Some of the results follow.
# System: Escherichia coli K-12 BW25113
# Experiment: relative growth (OD600 normalised to plate interquartile mean) (fraction); higher = less growth inhibition, active = 0.2 or less
# Conditions: 50 µM; LB; incubation time: overnight (16-24 h)
# 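Also: static incubation at 37 °C against the wild-type strain, values averaged over two biological replicates.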
row,Compound,relative growth
1,COc1ccccc1OC[C@@H](O)COC(N)=O,inactive: 1.02
2,C[C@H](CO)N1C[C@H](C)[C@@H](CN(C)CC2CCCCC2)OCCCC[C@H](C)Oc2ccc(NC(=O)Nc3ccc4c(c3)OCO4)cc2C1=O,inactive: 1.02
3,Cc1noc(C)c1S(=O)(=O)Nc1ccc2c(c1)C(=O)N([C@H](C)CO)C[C@@H](C)[C@H](CN(C)C(=O)Nc1ccc(C(F)(F)F)cc1)OCCCC[C@@H](C)O2,inactive: 0.992
4,C[C@@H](C(=O)N(C)C[C@@H]1OCc2ccccc2-c2c(n(C)c3ccccc23)C(=O)N([C@@H](C)CO)C[C@@H]1C)c1ccccc1,inactive: 1.01
5,CC(C)N1C[C@H](C)[C@@H](CN(C)Cc2ccc(Cl)c(Cl)c2)Oc2c(C(=O)Nc3ccncc3)cccc2C1=O,inactive: 0.965
6,CO[C@@H]1CN(C)C(=O)c2cc(NS(=O)(=O)c3cn(C)cn3)ccc2OC[C@@H](C)N(CCC(F)(F)F)C[C@H]1C,inactive: 0.976
7,C=C(C)C1CCC2(C(=O)O)CCC3(C)C(CCC4C5(C)CCC(O)C(C)(C)C5CCC43C)C12 (stereo unspecified),inactive: 0.93
8,COc1ccc(S(=O)(=O)Nc2ccc3c(c2)C(=O)N([C@@H](C)CO)C[C@H](C)[C@H](CN(C)Cc2ccc4c(c2)OCO4)OCCCC[C@H](C)O3)cc1,inactive: 0.984
9,CN1CCN(C(=O)[C@H]2C[C@H]3CN(c4ncc(F)cn4)C[C@@H]3N2C)CC1,inactive: 1
10,C[C@H](CO)N1C[C@H](C)[C@H](CN(C)C(=O)Nc2ccc(F)cc2)OCCCC[C@H](C)Oc2ccc(NC(=O)C3CCCCCC3)cc2C1=O,inactive: 0.991
11,Cc1noc(C)c1NC(=O)N(C)C[C@@H]1Oc2c(NC(=O)Nc3cccc4ccccc34)cccc2C(=O)N([C@H](C)CO)C[C@@H]1C,inactive: 1
12,COc1ccccc1-c1ccc2c(c1)O[C@@H](CN(C)S(=O)(=O)c1ccccc1)[C@H](C)CN([C@H](C)CO)S2(=O)=O,inactive: 0.996
13,COc1ccc2c3c([nH]c2c1)[C@@H](CO)N(Cc1ccc(cc1)Cl)C[C@]13CN(CCc2ccccc2)C1,inactive: 0.849
14,CC(=O)Oc1cc(-c2coc3cc(OC(C)=O)c(OC(C)=O)c(OC(C)=O)c3c2=O)cc(OC(C)=O)c1OC(C)=O,inactive: 1.01
15,C[C@@H]1CN([C@@H](C)CO)C(=O)Cc2cc(NS(=O)(=O)c3ccc(Cl)cc3)ccc2O[C@H]1CN(C)S(C)(=O)=O,inactive: 1
16,CCCC[P+](CCCC)(CCCC)Cc1ccc(NC(=O)[C@H](Cc2ccc3ccccc3c2)N/C(=N/C2CCCCC2)NC2CCCCC2)cc1,active: 0.0326
17,C[C@@H]1CCCCO[C@@H](CN(C)C(=O)Nc2ccc3c(c2)OCO3)[C@@H](C)CN([C@@H](C)CO)C(=O)c2cc(NC(=O)Nc3ccc(C(F)(F)F)cc3)ccc2O1,inactive: 0.991
18,C[C@@H]1CN([C@H](C)CO)C(=O)CCCn2cc(nn2)CO[C@@H]1CN(C)S(=O)(=O)c1ccc(-c2ccccc2)cc1,inactive: 0.969

row,Compound,relative growth
1,C[C@@H]1CCCCO[C@H](CN(C)S(=O)(=O)c2cccs2)[C@H](C)CN([C@H](C)CO)C(=O)c2cc(NC(=O)C3CCCCC3)ccc2O1,inactive: 1.03
2,COc1ccc(CN(C)C[C@H]2Oc3ccc(NS(C)(=O)=O)cc3C(=O)N([C@H](C)CO)C[C@@H]2C)cc1,inactive: 0.998
3,CNC[C@@H]1Oc2ccc(NC(=O)Cn3cnnn3)cc2CC(=O)N([C@@H](C)CO)C[C@H]1C,inactive: 1.02
4,COc1ccc([C@@H](NC(=O)C2CCN(Cc3ccc(Oc4ccccc4)cc3)CC2)c2ccccn2)cc1,inactive: 1.04
5,C[C@H]1CN([C@@H](C)CO)C(=O)CCCn2cc(nn2)CO[C@H]1CN(C)C(=O)Nc1cccc(C(F)(F)F)c1,inactive: 0.991
6,C[C@@H]1CCCCO[C@@H](CN(C)S(=O)(=O)c2cn(C)cn2)[C@@H](C)CN([C@H](C)CO)C(=O)c2cc(NS(=O)(=O)c3cn(C)cn3)ccc2O1,inactive: 1.02
7,C[C@@H]1CN([C@@H](C)CO)C(=O)c2cc(NC(=O)Nc3ccc(C(F)(F)F)cc3)ccc2O[C@@H]1CN(C)C(=O)Nc1ccc2c(c1)OCO2,inactive: 1.03
8,COc1ccc(S(=O)(=O)N(C)C[C@@H]2Oc3c(NC(=O)Nc4c(C)noc4C)cccc3C(=O)N([C@@H](C)CO)C[C@@H]2C)cc1,inactive: 1.01
9,C[C@H](CO)N1C[C@H](C)[C@H](CN(C)C(=O)Nc2ccc(C(F)(F)F)cc2)Oc2ccc(NC(=O)Cc3cn(C)c4ccccc34)cc2CC1=O,inactive: 1.03
10,CCCN(C)C[C@H]1OCCCC[C@@H](C)Oc2ccc(NC(=O)CCC(F)(F)F)cc2C(=O)N([C@H](C)CO)C[C@@H]1C,inactive: 0.979
11,CN1CCN(C(=O)C[C@@H]2CC[C@@H]3[C@@H](COc4ccc(NC(=O)C5CCOCC5)cc4C(=O)N3C)O2)CC1,inactive: 1.01
12,CCCNC(=O)[C@@]1(Sc2ccc(C)cc2)CC(=O)N(Cc2ccccc2C(F)(F)F)[C@@H]1c1ccc(CO)cc1,inactive: 0.978
13,C[C@H]1CN([C@@H](C)CO)C(=O)Cc2cc(NC(=O)CCC(F)(F)F)ccc2O[C@@H]1CN(C)Cc1ccc(C(F)(F)F)cc1,inactive: 1.03
14,Cc1ccc(S(=O)(=O)N(C)C[C@H]2OCCCC[C@@H](C)Oc3ccc(NC(=O)Nc4ccc(F)cc4)cc3C(=O)N([C@@H](C)CO)C[C@H]2C)cc1,inactive: 1.06
15,C[C@H]1CN([C@@H](C)CO)C(=O)c2cccc(NC(=O)Nc3cccc4ccccc34)c2O[C@H]1CN(C)Cc1ccc(Cl)c(Cl)c1,inactive: 1.01
16,CN1CCN(C(=O)C[C@H]2CC[C@@H]3[C@@H](COc4ccc(NC(=O)C5CCCCC5)cc4C(=O)N3C)O2)CC1,inactive: 0.992
17,COc1ccc(NC(=O)Nc2cccc3c2O[C@H](CN(C)Cc2ccc(C(F)(F)F)cc2)[C@@H](C)CN([C@H](C)CO)C3=O)cc1,inactive: 0.779
18,C[C@@H]1CN([C@@H](C)CO)C(=O)c2cccc(NC(=O)c3nc4ccccc4s3)c2O[C@H]1CN(C)S(=O)(=O)c1cn(C)cn1,inactive: 1.05
